Laboratory results taken from PubChem BioAssay AID488969 (Vanderbilt High Throughput Screening Facility, 2010).
Whole data set: some 110,000 compounds, median “z-score” near -0.1, cut for the highest 2% near 2. The list shows a part of the results.

Target: Metabotropic glutamate receptor 8 (Rattus norvegicus) (UniProt P70579)
Assay: mGluR8 Gi/Go-coupled signaling modulation – cell-based, rat, thallium flux, HTS, primary screen (AID 488969)
Settings: HEK293 rat mGluR8, GIRK (G protein-gated inwardly rectifying potassium channel) thallium flux, FluoZin2; at 10 µM; stronger effect = higher value; submaximal glutamate (EC20) added with thallium

Sequence of UniProt P70579 (P70579 whole entry, looked up): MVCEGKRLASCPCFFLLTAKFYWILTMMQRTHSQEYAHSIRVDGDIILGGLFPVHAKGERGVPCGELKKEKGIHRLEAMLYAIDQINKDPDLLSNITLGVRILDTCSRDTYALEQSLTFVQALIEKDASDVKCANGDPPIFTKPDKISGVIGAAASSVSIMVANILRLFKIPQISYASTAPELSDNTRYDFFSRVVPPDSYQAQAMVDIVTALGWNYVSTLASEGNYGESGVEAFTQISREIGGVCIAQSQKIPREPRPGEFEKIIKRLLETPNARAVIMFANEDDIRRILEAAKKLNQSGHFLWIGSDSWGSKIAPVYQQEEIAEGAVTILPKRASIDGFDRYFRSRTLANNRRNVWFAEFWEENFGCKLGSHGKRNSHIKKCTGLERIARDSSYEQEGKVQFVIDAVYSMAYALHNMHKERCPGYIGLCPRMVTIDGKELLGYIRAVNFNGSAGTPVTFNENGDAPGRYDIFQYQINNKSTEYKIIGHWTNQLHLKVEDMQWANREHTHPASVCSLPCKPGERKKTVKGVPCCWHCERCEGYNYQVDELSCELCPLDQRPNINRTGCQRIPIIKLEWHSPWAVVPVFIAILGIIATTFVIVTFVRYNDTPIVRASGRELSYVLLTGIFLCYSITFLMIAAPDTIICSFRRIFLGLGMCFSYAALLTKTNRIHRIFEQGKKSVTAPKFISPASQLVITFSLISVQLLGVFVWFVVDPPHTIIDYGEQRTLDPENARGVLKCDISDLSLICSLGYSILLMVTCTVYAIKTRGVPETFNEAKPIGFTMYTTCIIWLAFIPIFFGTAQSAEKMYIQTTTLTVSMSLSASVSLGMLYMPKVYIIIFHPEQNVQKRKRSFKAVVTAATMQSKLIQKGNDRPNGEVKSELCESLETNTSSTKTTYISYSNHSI

Compound	z-score
CCOC(=O)Cn1nc(C)c2c1CCCC2=O	0.159
COCC(=O)Nc1ccc(C(C)C)cc1	-0.217
O=C(Nc1cccc(NC(=O)c2ccccc2[N+](=O)[O-])n1)c1ccccc1[N+](=O)[O-]	-0.629
CC(=O)NCCNC(=O)[C@H](Cc1ccccc1)NC(=O)c1cccs1	0.2
Cc1cc(NC(=S)Nc2ccccc2)ccc1Br	0.304
O=C(OC(C(=O)NCc1cccs1)c1ccccc1Cl)c1ccco1 (stereo not drawn)	-0.793
COc1cc(C)c(S(=O)(=O)N2CCOCC2)cc1C	0.136
COc1ccc(Cl)cc1Nc1nc(-c2sc(NC(=O)c3ccco3)nc2C)cs1	-0.591
O=C(c1cccs1)c1coc2ccc(O)c(CN3CCOCC3)c12	1.08
COc1cc(C(=O)Nc2nc(-c3ccc(F)cc3)cs2)ccc1OCC(=O)N1CCOCC1	0.0184
Cc1ccc(C(=O)CSc2ccc(-c3ccccc3)nn2)cc1	-0.183
O=P(O)(O)C(O)C(F)(F)C(F)(F)C(F)(F)C(F)F (stereo not drawn)	-0.236
COC(=O)c1cc(NC(=O)N2c3ccccc3Sc3ccccc32)cc(C(=O)OC)c1	-0.211
CC12COC3(C(=O)Nc4ccc(F)cc4)CC1CCC32C (stereo not drawn)	-0.00125
COc1ccc(C2c3c(oc4ccccc4c3=O)C(=O)N2Cc2ccncc2)cc1 (stereo not drawn)	0.116
COc1ccc(C(=O)C(CN2CCOCC2)c2ccccc2)cc1F (stereo not drawn)	0.233
O=C1c2ccccc2NC(c2c(Cl)cccc2Cl)N1Cc1ccccc1 (stereo not drawn)	-0.191
CC(=O)Nc1cc(C(C)(C)C)c(O)c(C(C)(C)C)c1	-0.502
N#Cc1cc(Oc2cccnc2)c(Oc2cccnc2)cc1C#N	0.18
Cc1cccc(OCC(=O)Nc2sc3c(c2C#N)CCC3)c1	-0.312
CNC(=S)NCCc1ccc(OC)c(OC)c1	0.44
CC(OC(=O)c1cccnc1)C(=O)NCc1ccc2c(c1)OCO2 (stereo not drawn)	-0.223
Clc1ccc(Oc2nc3ccccc3n3cccc23)cc1	-0.864

Compound	z-score
CCOc1ccc(CCNC(=O)C2CCC(=O)N2C2CCCCC2)cc1OCC (stereo not drawn)	-0.58
COc1ccc(NC(=O)CCN2CCCC(C)C2)cc1 (stereo not drawn)	0.469
CSc1ccccc1C(=O)Nc1cc(C)cc(C)c1	-0.0645
CCOC(=O)CNc1ncc([N+](=O)[O-])cc1C#N	0.0842
CCOC(=O)C(C)Sc1ncc(-c2ccc(Cl)cc2)cn1 (stereo not drawn)	-0.302
COC(=O)C1=C(C)N(Cc2ccc(C)cc2)C(=O)C1	-0.106
CCc1cc2c(CN3CCN(C)CC3)cc(=O)oc2cc1O	0.691
CCC1=C(OC(=O)c2ccccc2)C(C)(C)C(c2ccccc2)OC1=O (stereo not drawn)	0.065
Cn1nc(CC(=O)Nc2ncc(Br)s2)c2ccccc2c1=O	-0.694
COc1ccc(Cc2c(O)nc[nH]c2=O)cc1	-0.109
O=C(COc1ccc(Cl)cc1)NCCSCc1ccccc1Cl	-0.285
Cc1nnc(SCC(=O)N/N=C/c2cn(-c3ccccc3)nc2-c2ccccc2)n1-c1ccccc1	-0.297
NC(=O)CSc1nc2sc(-c3ccccc3)cc2c(=O)n1N	-0.899
CCCN=Cc1c(CCC)[nH]n(-c2nc3ccccc3s2)c1=O	-0.961
COC(=O)c1c(NC(=O)CCC(=O)O)sc2c1CCCCC2	-0.271
CCOC(=O)c1ccc(Nc2c(CC)c(C)nc3ncnn23)cc1	-0.346
COc1ccc(S(=O)(=O)Cc2ccc(C(=O)N3CCN(c4ccccn4)CC3)o2)cc1	-0.197
CCOc1cc(NC(=O)c2ccccn2)c(OCC)cc1NC(=O)CC(C)C	-0.376
CCOC(=O)C=C1CCN(c2ncc(C(F)(F)F)cc2Cl)CC1	-0.0961
COc1ccc(-c2ccc(-c3noc(-c4ccccc4C)n3)c(OC)n2)cc1	0.972
CCCN1CCC2(CC1)C(C#N)=C(N)Oc1c2sc2nc(C)cc(C)c12	0.127
COc1ccccc1N(CC(=O)N/N=C/c1ccc(OCC(=O)NCc2ccco2)cc1)S(=O)(=O)c1ccc(C)cc1	-0.803
CCOc1cc(C(=O)Nc2ccc3c(c2)OCO3)ccc1OCCOc1ccccc1Cl	-0.142

Compound	z-score
Cn1c(=O)c2c(nc(N/N=C/c3ccc(OC(=O)c4ccco4)cc3)n2Cc2ccccc2Cl)n(C)c1=O	-0.5
O=C(NCc1ccc2c(c1)OCO2)c1ccc2snnc2c1	0.056
COc1ccc(-c2c(C#N)c(C)nc3c2C(=O)c2ccccc2-3)cc1	-0.139
O=C(Nc1ccccc1)c1cccnc1N1CCCC1	0.569
COc1cccc(C(=O)NCCOc2cc(C)cc(C)c2)c1	-0.17
Cn1c(C(=O)N2CCC(C(N)=O)CC2)cc2c(=O)n(C)c3ccccc3c21	-1.06
CCCCCCNC(=O)Cc1c(O)c2ccccc2[nH]c1=O	0.0939
CC(C)CC(C(=O)NC(=O)NCc1ccccc1)N1C(=O)c2ccccc2C1=O (stereo not drawn)	0.208
O=C(NCC(F)(F)F)N1CCOCC1	-0.169
COc1ccccc1C(=O)Oc1ccc(C(C)(C)C)cc1	0.143
N#Cc1ccc2ccn(CC(=O)NC3CCCCCC3)c2c1	0.0132
O=C(c1ccco1)N(Cc1ccc([N+](=O)[O-])cc1)c1ccc(Cl)cc1	-0.31
COc1ccc(S(=O)(=O)NCc2ccccc2)cc1	0.172
c1ccc(-c2n[nH]c(-c3ccccn3)n2)nc1	0.0205
CCOc1ccc2nc(NC(=O)c3cnc(C)cn3)sc2c1	-0.079
CCOCCCNC(=O)c1ccc(NC(C)=O)cc1	-0.0798
Cc1ccc(C(=O)Nc2nc3nc(-c4ccccc4)cc(=O)n3[nH]2)cc1	0.248
O=C(O)CCn1c2c(c3ccccc31)CCCC2	-0.105
CCN(CC)c1ccc(/C=N/N=C(c2ccccc2)c2ccccc2)c(O)c1	-0.147
CCc1ccccc1N1C(=O)C2CC=CCC2C1=O (stereo not drawn)	-0.529
O=c1c2c3c(sc2ncn1/N=C/c1ccc([N+](=O)[O-])o1)CCCC3	-0.182
Cc1ccc(C)c(/C(O)=C2\C(=O)C(=O)N(CCCn3ccnc3)C2c2cccnc2)c1 (stereo not drawn)	0.61
O=C(c1cc(-c2ccc3c(c2)OCO3)on1)N1CCOCC1	0.561

Compound	z-score
Clc1ccc(-c2cc3ccccc3[nH]2)cc1	-0.274
CCCS(=O)(=O)NCc1cn2cccc(C)c2n1	-0.145
CC(=C1C(=O)c2ccccc2C1=O)N1CCN(Cc2ccccc2)CC1	-0.06
O=C(Nc1cccc(F)c1)c1c(F)c(F)c(F)c(F)c1F	-0.552
C=CCn1c(NCCO)nc2c1c(=O)n(C)c(=O)n2C	0.247
Cn1c(=O)c2c(nc(N3CCCCCC3)n2CCSc2nc3ccccc3o2)n(C)c1=O	-0.443
Cc1onc(-c2ccccc2)c1C(=O)NC(=S)NNC(=O)c1cccnc1	-0.0403
Cc1cc(C)n(-c2nnc(SCC(=O)NC3CCCC3)c3ccccc23)n1	-1.07
CCc1c(C)nc(SC)n(CC#N)c1=O	-0.0371
CC(=O)c1c(C)[nH]c(C(=O)NCc2ccccc2)c1C	0.037
CC1CC(C)CN(c2nc3c(c(=O)n(C)c(=O)n3C)n2CCSc2ncccn2)C1 (stereo not drawn)	0.369
N#C/C(=C/c1cn(-c2ccccc2)nc1-c1cccc(OCc2ccccc2)c1)C(=O)NCCCn1ccnc1	0.0997
S=c1[nH]nc(-c2ccncc2)n1CC1CCCO1 (stereo not drawn)	0.903
O=C(O)CCC(=O)N1CCc2cc(S(=O)(=O)N3CCN(c4ccc(F)cc4)CC3)ccc21	-0.105
CCN1C(=O)C(O)(CC(=O)/C=C/C=C/c2ccccc2)c2ccccc21 (stereo not drawn)	-0.114
Cc1ccc(NC(=O)c2ccco2)c(NC(=O)c2cccs2)c1	0.178
Cc1ccc(S(=O)(=O)N2CCCC(C(=O)Nc3ccc(NC(=O)c4ccccn4)cc3)C2)cc1 (stereo not drawn)	0.114
CCOc1cc(C)nc(N2CCN(C3CCCCC3)CC2)n1	0.806
COc1cc(/C=C/C(=O)Nc2nnc(C(C)(C)C)s2)cc(OC)c1OC	-0.615
Cc1cc(/C=N\NC(=O)COc2cccc3cccnc23)c(C)n1-c1ccc(Br)cc1	-0.24
O=[N+]([O-])c1ccc2nc(SCc3ccccc3Cl)sc2c1	-0.183
CCCn1nnc(NC(=O)COc2ccc(C3CCCCC3)cc2)n1	2.04
c1ccc(-c2noc(CSc3nnnn3C3CCCCC3)n2)cc1	-0.0529

Compound	z-score
CC(=O)Nc1ccccc1Sc1ccc2c3c(cccc13)C(=O)N(c1ccc(C)cc1)C2=O	-0.0506
COc1cccc(C2/C(=C(/O)c3ccc(C)cc3)C(=O)C(=O)N2Cc2ccco2)c1 (stereo not drawn)	-0.755
Cc1ccc(NC2=C(Cl)C(=O)OC2NC(=O)c2ccccc2)cc1 (stereo not drawn)	-0.201
COc1cccc(CN2C(=O)C3CCCN3c3ccc(S(=O)(=O)N4CCOCC4)cc32)c1 (stereo not drawn)	-0.0456
CCOC(=O)c1nnc2cc(-c3ccc(Br)cc3)nn2c1C	0.295
CCOc1cc(NC(=S)Nc2cccc(C)c2)c(OCC)cc1NC(=O)CC(C)C	-0.128
Fc1ccc(Nc2nc(-c3ccncc3)nc3ccccc23)cc1	-0.153
COc1ccc(C2C(=O)c3ccccc3C2=O)c(OC)c1	0.409
CN(C)C(=O)N1CCC(C(=O)NC2CCCCCCC2)CC1	0.0301
COc1ccc(CCNS(=O)(=O)c2ccc(Cl)s2)cc1OC	0.0415
Cc1csc2nc(CNS(=O)(=O)N(C)C)cn12	-0.402
COC(=O)c1c(C(=O)OC)c(-c2ccccc2)n2c1CS(=O)(=O)C2	-0.0648
Cn1nc(C(=O)NCc2cccnc2)c2ccccc2c1=O	-0.0541
COC(=O)c1sc(NC(=O)CSc2nc3cccnc3n2C2CCCCC2)nc1C	0.268
CCC(C)NC(=O)CO/N=C/c1ccc(C(=O)OC)cc1 (stereo not drawn)	-0.0741
COc1ccc(C(=O)N/C(=C\c2cccs2)c2nc3ccccc3[nH]2)cc1OC	0.0502
C=C(C)C1Cc2c(C)nn(-c3ccccn3)c2C1 (stereo not drawn)	-0.83
CCOC(=O)C1(C)C=C(Nc2ccc(OC)cc2)C(=O)N1c1ccc(OC)cc1 (stereo not drawn)	-0.651
CCN(CC)S(=O)(=O)c1ccc2c(c1)nc(CCC(=O)Nc1ccccc1Cc1ccccc1)n2CC	0.282
Cc1cccc(-c2noc(Cc3ccc(Cl)cc3)n2)c1	0.803
COc1cc(C(c2c(C)[nH][nH]c2=O)c2c(C)[nH][nH]c2=O)ccc1OC(C)C	-0.109
